Self-cleavage data for 167 variants are collected here from the RNAGym collection of RNA variant scans (doi:10.7554/elife.90254).

B1: LINE1-mini (parent)
chain: GGCAGAGCUCAACACAGCGUGGCAAAGUGGCUGUGGCUAGACUGCC

The source gives no read counts; variants with many changes may rest on few reads.

In this data set the parent is B1. Description: self-cleavage, relative activity (ratio to wild type); higher = more cleavage; in vitro, sequencing; the parent is a self-cleaving ribozyme.
As for G17U C23A A26G C37U A39G C42G, the self-cleavage turned out to be 0.01. As for G19A G22A C23U A24U U28C G36C, the self-cleavage came to 0.27. As to G17U A25G G33U, the self-cleavage was found to be 0.07.

With C18U C23A C37G, the self-cleavage is 0.16.

In the case of G17U U20G G44C C45G, the self-cleavage was determined as 0.02. For the variant C18A U28A G40C, the self-cleavage is 0.09. As for G17U G19U U34G A41U, the figure is 0.1; as for G19A G21A G22C G35A, 0.1; as for C18G A26U G30A, 1.99. The result for G19A G21C G27U reads 0.51; that for C18A G22U U34G, 0.02.

G17U A26C G33C G36A A39U: the self-cleavage turned out to be 0.02. Take G17U U32C G33U: the self-cleavage is 0.04. As for G17U U28A C31U, the figure is 0.14; as for G17U C23G C31A, 0.24; as for C18U G21A A24U G35A, 0.2.

Regarding G17U G22A A24C C31U A39C G40U, the self-cleavage stood at 0.01.

Consider C18U G27U C42A, for which the self-cleavage was 0.05. As for G19A G29U G35A, the figure is 0.36; as for C18G U38C G44C, 0.04; as for C18A U34C G44C, 0.07. G17U C31U G35A: the self-cleavage is 0.01.

In the case of C18G G36U C45U, the self-cleavage came out at 0. C18U C23G G40C: the self-cleavage came to 0.05. Turning to C18A C37U A41U, the self-cleavage came out at 0.06. As to C18A A24G A26U C37U U38G, the self-cleavage came to 0.02. For the variant C18U G27C G29U, the self-cleavage turned out to be 0.41.

For G17U C23U U34C G44U, the self-cleavage stood at 0.01. For C18G C37G C46U, the self-cleavage was determined as 0.04. Regarding C18U G19A A26C C37A C46U, the self-cleavage was determined as 0.05. As for C18G G29U G36C A41U U43C, the figure is 0.08; as for G19A G22C G40A, 0.15; as for G17U C18A C37A, 0.27. Consider C18U C37G U38C, for which the self-cleavage came out at 0.01. As to C18G C31G U32C C46U, the self-cleavage was 0.05. Regarding C18A U20C A24G C42A, the self-cleavage is 0.02.

On to C18A G29U C31U U43C, for which the self-cleavage was found to be 0.02. For the variant C18G A24C A25U C31U C42G G44C, the self-cleavage worked out at 0.01. The result for C18A G22C G27C reads 0.18; that for G17U A26G C37U, 0.06. As for C18U G30U G35U, the figure is 0.05. For C18U C31U C42U, the self-cleavage turned out to be 0.07. C18A G29A A41U: the self-cleavage is 0.08. As for G17U G21U A24G, the figure is 0.02; as for G17U A24G A26U, 0.01; as for C18A U28A U32C C37A C42U, 0. The result for C18U G21C C23G reads 0.27; that for G17U A25C A39C C45A, 0.06.

Regarding C18A G40C U43G, the self-cleavage was 0.1. As for C18A C37G G40A, the figure is 0.02; as for C18G G29U G40U, 0.08; as for G17U G27U U28C, 0.38.

On to G17U U38A A41G, for which the self-cleavage turned out to be 0.11. As for C18G G21A C31U, the figure is 0.04; as for G17U G36U U38A G44U, 0.27; as for G17U G35C C37U, 0.06. Take G19A C37A C45U: the self-cleavage was found to be 0.05. As for C18A G22C C23A C42U, the figure is 0.25; as for C18G G29C C45A, 0.29. As to G19A G22C G30U G44U, the self-cleavage amounted to 0.1. The result for C18G C23U A26C C42U G44A reads 0.02. The result for G17U G29U G40C reads 0.08; that for G17U G30A U38G, 0.01; that for C18G G33U G44C C46U, 0.02. Turning to C18U U34C U38A, the self-cleavage was 0.03.

For G19A C31A G36A, the self-cleavage came out at 0.11. The result for C18G C23U A26C G40A reads 0.11. As for C18G C23G A25C C42U, the figure is 0.08; as for G17U G22U G29A C42U G44C C46A, 0.03; as for C18G A26U G27U U28C, 0.1. In the case of G19A A24G C46A, the self-cleavage turned out to be 0.91. The result for G19A A26G G35U A39C reads 0.09; that for C18A C23G G27U C46G, 0.64; that for C18A G19A A41G, 0.19. On to G17U A25C G35U A39C, for which the self-cleavage was 0.03. Take G19A G27U G36C: the self-cleavage stood at 0.06.

On to C18G U28C G29U, for which the self-cleavage worked out at 0.87.

For the variant C18A A26G G29A G33U, the self-cleavage worked out at 0.04. The result for G17U G35A C46A reads 0.02; that for C18G G21U G30C G35U, 0.04; that for C18A G29C A39U, 0.05.

C18G G21C A24U A39G: the self-cleavage was determined as 0.03.

G19A G30A G35U: the self-cleavage is 0.22.

For the variant C18U A26C U34C, the self-cleavage is 0.05. Consider G17U U20G G40U, for which the self-cleavage was 0.08. The result for C18G A24C C37G reads 0.02. As to C18A A25U U34A, the self-cleavage was found to be 0.03.

Consider C18A A25U C31G G40A, for which the self-cleavage amounted to 0.04. With G19A A26U U34G, the self-cleavage turned out to be 0.39.

With C18U G35A G36C U38G, the self-cleavage was determined as 0.02. In the case of C18U G22U G35U C37G, the self-cleavage stood at 0.05. The result for G19A A25U U34A C37G reads 0.06; that for G17U A25U A39C, 0.02; that for G17U U28A G36A, 0.04.

G19A A25G G27A G29C U34A C37G: the self-cleavage is 0.04.

Turning to C18A C23A G35U, the self-cleavage worked out at 0.01. Regarding C18U C31U C45U, the self-cleavage was 0.14. Consider C18G G21U U34G, for which the self-cleavage was 0.06.

On to G19A A26G G40U, for which the self-cleavage came out at 0.06. As for G17U C37G C46U, the figure is 0.02. Regarding C18A G19U G44U, the self-cleavage amounted to 0.22.

As to G17U G21U A25G, the self-cleavage came out at 0.06. With C18U G29A G40U C46A, the self-cleavage was found to be 0.15. As for C18G G21A C37U, the self-cleavage worked out at 0.09.

In the case of G17U G35U C37G, the self-cleavage stood at 0.02.

C18G G22C C31A G40C C45A: the self-cleavage came to 0.01. As for C18A G19C C46G, the figure is 0.45; as for G17U C23G C37A, 0.19.

Take C18G U20A G36C: the self-cleavage came to 0.08. Take C18U A24U G29U: the self-cleavage was 1.2. As for C18U U20A U32C C37A U43A, the self-cleavage turned out to be 0.38. As for C18A C31U G33A G35U G44C, the figure is 0.1.

As for C18A U34C U43A, the self-cleavage was found to be 0.07. On to C18G U20G C37A, for which the self-cleavage stood at 0.07. As for G17U A25U C42U, the figure is 0.05; as for C18U U32G U38A, 0.06. For C18G G40C C42G C45A, the self-cleavage came to 0.02. As for C18U G19U A24G C45U C46G, the figure is 0.02; as for C18U C23U U28C G36C, 0.05.

Turning to C18A G35A A39G, the self-cleavage is 0.04. Turning to G17U U20G G22A U28G C31G G35A, the self-cleavage stood at 0.02. On to G17U U32A G44A, for which the self-cleavage was determined as 0.03.

For G17U U20A G33U U34C, the self-cleavage amounted to 0.04.

C18G A24G G29C A41G: the self-cleavage is 0.07.

Turning to C18A G19A G21A, the self-cleavage was found to be 0.73. For C18A C37U U43C, the self-cleavage amounted to 0.06. As for C18A G29U U38G, the figure is 0.04.

In the case of C18U G22U G35A G36A C42A, the self-cleavage turned out to be 0.04.

In the case of C18U C23A G29C, the self-cleavage was found to be 0.22. Turning to C18U C31G C37U G40C, the self-cleavage was 0.01. For C18A A25G G30C, the self-cleavage was found to be 0.11. In the case of C18U U34C C46U, the self-cleavage was found to be 0.04. The result for C18U G29A G36A reads 0.3; that for C18U A25C G27C U32A, 0.02; that for C18A G19A G33A, 0.09. Regarding C18A G19A G33U, the self-cleavage stood at 0.05. The result for C18A G30C G33C reads 0.07; that for G17U G27A C37U, 0.03. As for C18G G19C U28C G29A, the self-cleavage turned out to be 1.13. With C18U C42A C45A, the self-cleavage was determined as 0. Take C18G G29A G35A: the self-cleavage turned out to be 0.11. For the variant C18G U28C U43C, the self-cleavage stood at 0.06. On to C18U C23A G29A G36A G44U, for which the self-cleavage was found to be 0.04. The result for C18A A24U A26C C42A reads 0.22; that for C18A A26U U32G G35U, 0.01; that for C18U U20A A41U, 0.4. C18U C23A C31G U43A: the self-cleavage worked out at 0.01. The result for C18G A26G U43A reads 0.06; that for C18A U20A U32A, 0.12. For the variant C18G U34C A41C, the self-cleavage amounted to 0.07. Consider C18U G30C G40U, for which the self-cleavage was found to be 0.03. On to G17U C23A A25G G29A C31U C37A G40U, for which the self-cleavage was determined as 0.01. The result for C18U U34G C46A reads 0.03.

As for C18G G36U C46U, the self-cleavage is 0.03.

On to G19A A25U G35U, for which the self-cleavage was found to be 0.06. As for C18G G27U G29C C42U, the figure is 0.12; as for C18G G33A G35A, 0.03.

With G17U A26G U32G C45U, the self-cleavage was found to be 0.05. Consider C18G G36U G40U A41G, for which the self-cleavage turned out to be 0.04.

For C18U U38C C45U, the self-cleavage came to 0.11. With C18A G19A G29C C45A, the self-cleavage was found to be 0.23. The result for G17U C23A U28C C46A reads 0.77; that for C18U A26U G36U, 0.05. Regarding G17U G27A C42A, the self-cleavage came to 0.03. Take G17U U32C C37G G40A: the self-cleavage turned out to be 0.02. In the case of C18G C23A G29A, the self-cleavage worked out at 1.4.

Take C18U U38G U43C: the self-cleavage is 0.02.
